Test results reported in paper PMC7819943, “Rice protein-binding microarrays: a tool to detect cis-acting elements near promoter regions in rice”.
The list shows a part of the results.

Target: T1, OsWOX13 (Oryza sativa, UniProt Q5QMM3 1-267)
T1 sequence: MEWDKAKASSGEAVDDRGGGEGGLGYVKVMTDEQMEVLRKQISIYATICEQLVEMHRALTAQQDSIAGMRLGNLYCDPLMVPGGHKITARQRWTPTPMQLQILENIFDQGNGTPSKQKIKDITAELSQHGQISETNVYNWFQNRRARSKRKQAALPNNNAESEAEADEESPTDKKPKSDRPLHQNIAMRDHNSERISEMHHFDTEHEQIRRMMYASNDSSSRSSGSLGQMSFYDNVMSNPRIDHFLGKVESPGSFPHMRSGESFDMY
Test: protein-binding microarray (RPBM); PBS, 2% BSA, 51.3 ng/ul salmon testes DNA, 50 uM zinc acetate, 200 nM TF, 25 C, 1 h; high values mean tight binding
Details: protein: recombinant; tags: N-terminal polyhistidine and DsRed monomer fusion (pET32a); label: CyDye5-dUTP incorporated in the synthesized complementary strand; 3' TTTTT single-stranded linker to array surface; dsDNA, one strand shown
Outline: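 The binding signal is fluorescence intensity per feature, in arbitrary units, read on an Axon 4000B scanner. Polyhistidine- and DsRed-tagged transcription factors (N-terminal fusions) from E. coli BL21-CodonPlus were purified on Ni–NTA and applied at 200 nM for 1 h at 25 °C to a double-stranded, BSA-blocked custom Agilent array in buffer with 50 µM zinc acetate.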

Sequence | binding signal
TATTTGACAGAATGCAGGTGGTGGAAAGCAATATGCATTCCGGAGTCACCTAGTGCAG | 9470 fluorescence intensity (a.u.)
CTAGTTTACATTTAATACTTCTAATTAGTACTCCCTCCGTCGGAGTCACCTAGTGCAG | 3290 fluorescence intensity (a.u.)
CCTGACTGTCGACACCGACATGGATGGCCGTGTGTTGCCACGGAGTCACCTAGTGCAG | 5690 fluorescence intensity (a.u.)
AAAATTGAATGAGACGAGTGGTCAAACGTTGCAAGCAAAACGGAGTCACCTAGTGCAG | 21100 fluorescence intensity (a.u.)
GCACAAATTGGCTGGACCCATGGGATTAGCATGCAGCGTCCGGAGTCACCTAGTGCAG | 11800 fluorescence intensity (a.u.)
TCACTTTTAAAATATTTGTCAATCAAATGTGATGACTACACGGAGTCACCTAGTGCAG | 16500 fluorescence intensity (a.u.)
TAAAATTCAGTTAATTTACTTAGTGCACTGACCAAACATCCGGAGTCACCTAGTGCAG | 16200 fluorescence intensity (a.u.)
AGTGATTGATCAGTTGAATTATTGAGTTCTCCAATGAATTCGGAGTCACCTAGTGCAG | 34700 fluorescence intensity (a.u.)
ATGTAAATTACTTTATTATTATATTAATATATATTTATCGCGGAGTCACCTAGTGCAG | 28000 fluorescence intensity (a.u.)
ATTGTACGTTGATTTATATGCCTTACCTTACGATAGAACGCGGAGTCACCTAGTGCAG | 9610 fluorescence intensity (a.u.)
CATTAGTTTGTGCCTGATAGAATTAAAATTTACATTCCAACGGAGTCACCTAGTGCAG | 3400 fluorescence intensity (a.u.)
AATATTAAATTAGTTTCATTAAATCAATAATTAAATTTATCGGAGTCACCTAGTGCAG | 12700 fluorescence intensity (a.u.)
GATAGATAGATTATCTGACAGACTTCCTCAACGAACGTAGCGGAGTCACCTAGTGCAG | 30300 fluorescence intensity (a.u.)
CTGATGTGATTACGTCTATCCAGTATAATCCCTCTGGTTTCGGAGTCACCTAGTGCAG | 31700 fluorescence intensity (a.u.)
TGTGATTTTCAATAAATTGACTCGCGTTTTCAACGGTTCCCGGAGTCACCTAGTGCAG | 33200 fluorescence intensity (a.u.)
GCTTGATGAGTGCTAAGGCGCTGCCTTCACAAATCATACCCGGAGTCACCTAGTGCAG | 6190 fluorescence intensity (a.u.)
AAGAAAACCTAATTGTTACTACCATTTACCAAACCTACCACGGAGTCACCTAGTGCAG | 3910 fluorescence intensity (a.u.)
AAAAGAATCGAGAAATTGATGAGATCGCATAAGCAAGCAACGGAGTCACCTAGTGCAG | 3430 fluorescence intensity (a.u.)
ATACTAATTATACGGTCACACCTATCCGTTGCATGATGCACGGAGTCACCTAGTGCAG | 21100 fluorescence intensity (a.u.)
ATGATTTATATTCTCAAGGTTTGACTTAAACATTATCCTACGGAGTCACCTAGTGCAG | 10600 fluorescence intensity (a.u.)
AATTTAATCAAGTGAAATAATGGGAGAATTAAAATTTTCCCGGAGTCACCTAGTGCAG | 4270 fluorescence intensity (a.u.)

Sequence | binding signal
CTTAATTATTATGCTTGGTGTCTGCATTGTAACTGTATCTCGGAGTCACCTAGTGCAG | 33300 fluorescence intensity (a.u.)
TGTAAATGTATAAGATATAAATTACACTTAAAGTACTATGCGGAGTCACCTAGTGCAG | 4980 fluorescence intensity (a.u.)
TCTCCATCAAGGTAGCTAATTTCCCTTTCACACCACCCAACGGAGTCACCTAGTGCAG | 5210 fluorescence intensity (a.u.)
GGATAGAATTGATTGAGCGAGAGAGAGAATTGAACACAAACGGAGTCACCTAGTGCAG | 21200 fluorescence intensity (a.u.)
CTAGCCATTTATGGCCTGTGATTAATACAGTGTGTGGCCGCGGAGTCACCTAGTGCAG | 3320 fluorescence intensity (a.u.)
ACTAAAATTACATATGTAATTTAGGGACTTACAATGTAAACGGAGTCACCTAGTGCAG | 18300 fluorescence intensity (a.u.)
TCTTAAATTGGCTATAGATGAATTGGAGGACTATGCTATTCGGAGTCACCTAGTGCAG | 29700 fluorescence intensity (a.u.)
CCAGATTGATGGCTATCATCAGGCCATGCTGTTCTCGTCTCGGAGTCACCTAGTGCAG | 59800 fluorescence intensity (a.u.)
CCATAGAGTGAATTGACCCTTGATTTCCATAACAGCAAGACGGAGTCACCTAGTGCAG | 7040 fluorescence intensity (a.u.)
AATATTAATTAATTATTACAACTGTTTAAATCTTTCAATTCGGAGTCACCTAGTGCAG | 34000 fluorescence intensity (a.u.)
ATTTTATAATTTGTAAGGAGACTGTGGTTTCTAGTGGGTTCGGAGTCACCTAGTGCAG | 12000 fluorescence intensity (a.u.)
ACTACGTTGATTTGGTAAAGGCGCACCTTTCTGCTGGTAACGGAGTCACCTAGTGCAG | 8030 fluorescence intensity (a.u.)
GTTATTAAATTATTTTACACACGCAGGTTCTGGTAACTGGCGGAGTCACCTAGTGCAG | 12200 fluorescence intensity (a.u.)
GACATAATTGAAAATTCGTTACAAGTTTAAGAACCGCTAGCGGAGTCACCTAGTGCAG | 23100 fluorescence intensity (a.u.)
ATGTATTTGCTATTAAATTAATTATAGATGATTTAGAGCTCGGAGTCACCTAGTGCAG | 16300 fluorescence intensity (a.u.)
CTCCAATTAGAACAGGATTGCATACATCTTAACAGCAAAGCGGAGTCACCTAGTGCAG | 8020 fluorescence intensity (a.u.)
AAAACTGGATAGTTATGATTGTAATGGCAAGAAAGTTTTGCGGAGTCACCTAGTGCAG | 12700 fluorescence intensity (a.u.)
GGATTGATGAATCATTTCTTTCTCAGTGGTTGCTTATTTCCGGAGTCACCTAGTGCAG | 11200 fluorescence intensity (a.u.)
ATAAATTAATATGCGATATAATACTCCACAGCAAGTTAAACGGAGTCACCTAGTGCAG | 5020 fluorescence intensity (a.u.)
ATGTGCTAATTATTGATTTAGCCATGCGCCATCCGCGTATCGGAGTCACCTAGTGCAG | 32100 fluorescence intensity (a.u.)
ATATTGATTTGTAACATCACAGACACACATGATCTTTAGCCGGAGTCACCTAGTGCAG | 27900 fluorescence intensity (a.u.)
